Assay in all cases: Primary Screen for Target Class Profiling of Small Molecule Inhibitors of Methyltransferases
Experiment [1] deals with Glycine N-methyltransferase (Homo sapiens) (UniProt Q14749). Particulars: purified enzyme, MTase-Glo SAH luminescence; measured here: GNMT inhibition; at 40 µM; stronger effect = lower value. A digest of the protocol: (§1)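 Each enzyme was assayed with SAM and its substrate. SAH formation detected by MTase-Glo luminescence; single-point 40 uM screen[…].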
Experiment [2] has as its target Guanidinoacetate N-methyltransferase (Homo sapiens) (UniProt Q14353). Particulars: purified enzyme, MTase-Glo SAH luminescence; measured here: GAMT inhibition; at 40 µM; stronger effect = lower value. The gist of the method:
as §1

For experiment [3], the target named is Histamine N-methyltransferase (Homo sapiens) (UniProt P50135). Particulars: purified enzyme, MTase-Glo SAH luminescence; measured here: HNMT inhibition; at 40 µM; stronger effect = lower value. The gist of the method: as §1
Experiment [4] concerns the target Nicotinamide N-methyltransferase (Homo sapiens) (UniProt P40261). As to conditions: purified enzyme, MTase-Glo SAH luminescence; measured here: NNMT inhibition; at 40 µM; stronger effect = lower value. A digest of the protocol:
as §1

For experiment [5], the target named is Phenylethanolamine N-methyltransferase (Homo sapiens) (UniProt P11086). Particulars: purified enzyme, MTase-Glo SAH luminescence; measured here: PNMT inhibition; at 40 µM; stronger effect = lower value. A digest of the protocol:
as §1

This is one part of the list. The main result of the screen is listed elsewhere. These columns were measured beside it and carry no call.

This passage reports activity change, negative = inhibition results from PubChem BioAssay AID1745853 (National Center for Advancing Translational Sciences (NCATS), 2022).
% is set by controls: 0 for no effect and ±100 for the full control effect.

Regarding `COc1ccc(-c2nnc3n(CCc4ccccc4)c(=O)c4ccccc4n23)cc1OC`, the activity change, negative = inhibition in experiment [1] is -5.8%; in experiment [2] it was 4.02%; in experiment [3] it was -6.5%; in experiment [4], -0.154%; in experiment [5], -4.16%.

On to `CCOc1ccc(C2c3cccn3-c3sc4c(c3CN2C(=O)Nc2cc(F)ccc2F)CCCC4)cc1` (stereo not given), for which the activity change, negative = inhibition is -0.652% in experiment [1]; 1.05% in experiment [2]; 4.21% in experiment [3]; 2.89% in experiment [4]; 5.9% in experiment [5].

As to `CCOCCCN1C(=O)c2cc3ccccc3n2CC1(C)C(=O)NC1CCCC1` (stereo not given), the activity change, negative = inhibition in experiment [1] worked out at 8.79%; in experiment [2], 1.85%; in experiment [3] it was 7.89%; in experiment [4], 11.7%; in experiment [5], 3.91%.

As to `CC(C)C1c2cccn2CCN1C(=O)Nc1ccccc1Cl` (stereo not given), the activity change, negative = inhibition was -2.03% in experiment [1]; 0.643% in experiment [2]; -9.15% in experiment [3]; -7.81% in experiment [4]; -5.99% in experiment [5].

On to `Cc1cc(C(C)Nc2ccccc2)c2nc(N3CCOCC3)cc(=O)n2c1` (stereo not given), for which the activity change, negative = inhibition in experiment [1] is -1.04%; in experiment [2] it was -3.14%; in experiment [3], 4.18%; in experiment [4], -24.5%; in experiment [5], -10.1%.

Regarding `COC1OC(OC)C(O)(CCC2(C)C(C)CCC3(C)C2CC(O)C(O)C32CO2)C1O` (stereo not given), the activity change, negative = inhibition is 2.7% in experiment [1]; 7.84% in experiment [2]; 4.01% in experiment [3]; -6.46% in experiment [4]; 6.6% in experiment [5].

For `CCOC(=O)c1cc2n(n1)CC(C)(C(=O)NCc1ccccc1)N(Cc1ccccc1)C2=O` (stereo not given), the activity change, negative = inhibition amounted to 1.12% in experiment [1]; 0% in experiment [2]; 9.23% in experiment [3]; 12.9% in experiment [4]; 2.37% in experiment [5].

As to `Clc1ccc2nsnc2c1NC1=NCCN1`, the activity change, negative = inhibition in experiment [1] is -11.5%; in experiment [2], 1.39%; in experiment [3] it was 2.34%; in experiment [4] it was -7.09%; in experiment [5] it was -1.2%.

As for `CN(C)c1nccnc1OC1CCN(S(=O)(=O)c2ccccc2)C1` (stereo not given), the activity change, negative = inhibition in experiment [1] was -1.92%; in experiment [2] it was -7.14%; in experiment [3], -0.067%; in experiment [4] it was -2.44%; in experiment [5], 0.951%.

Take `CCN1CCC2(CCC1=O)CN(c1ncnc3c1CCC3)CCN2C` (stereo not given): the activity change, negative = inhibition in experiment [1] was -2.58%; in experiment [2], -2.05%; in experiment [3], -0.333%; in experiment [4], 0.347%; in experiment [5], -9.23%.

`O=C(CCc1nc2ccccc2s1)NC1CCc2n[nH]c(=O)n2CC1` (stereo not given): the activity change, negative = inhibition in experiment [1] is -3.93%; in experiment [2], -0.463%; in experiment [3], 1.38%; in experiment [4], -3.96%; in experiment [5] it was 4.81%.

Turning to `CC(C)CNC(=O)c1ccc2c(=O)n(Cc3ccccc3)c3nn(Cc4ccccc4F)c(=O)n3c2c1`, the activity change, negative = inhibition in experiment [1] is -0.28%; in experiment [2], 6.18%; in experiment [3], 2.74%; in experiment [4], 0.138%; in experiment [5] it was 0.792%.

Take `C=C1CC(=O)C2OC2(C)CC2OC(=O)C(=C)C2C(O)C1OC(=O)/C(C)=C\C` (stereo not given): the activity change, negative = inhibition was -0.319% in experiment [1]; -22.2% in experiment [2]; 0.336% in experiment [3]; -31.8% in experiment [4]; -3.34% in experiment [5].

Take `COc1cccc(CN2C(=O)c3nc4ccccc4n3CC2(C)C(=O)NC2CCCCCC2)c1OC` (stereo not given): the activity change, negative = inhibition in experiment [1] is -2.24%; in experiment [2], 5.3%; in experiment [3], 2.46%; in experiment [4], -5.62%; in experiment [5] it was -2.73%.

With `CC(C)CCn1c(=O)c2ccccc2n2c(CCC(=O)NCc3ccc(F)cc3)nnc12`, the activity change, negative = inhibition in experiment [1] is -4.51%; in experiment [2], 1.56%; in experiment [3] it was -3.46%; in experiment [4], 9.09%; in experiment [5], -4.71%.

Turning to `CN1C(=O)C(c2ccccc2)CC12CCN(c1ccnc(N)n1)CC2` (stereo not given), the activity change, negative = inhibition is 3.27% in experiment [1]; 1.24% in experiment [2]; -50.4% in experiment [3]; -0.656% in experiment [4]; 2.18% in experiment [5].

For the molecule `COc1ccccc1CNC(=O)C1c2c(n(C)c3ccccc23)SCC(=O)N1c1cccc(SC)c1` (stereo not given), the activity change, negative = inhibition in experiment [1] was 9.51%; in experiment [2] it was 0.276%; in experiment [3], 3.54%; in experiment [4] it was -1.18%; in experiment [5] it was 3.1%.

On to `CC1(C(=O)NC2CCCCCC2)Cn2c(cc3sccc32)C(=O)N1CCCN1CCOCC1` (stereo not given), for which the activity change, negative = inhibition worked out at 2.19% in experiment [1]; 1.37% in experiment [2]; 3.3% in experiment [3]; 7.33% in experiment [4]; 2.21% in experiment [5].

`C[S+](=O)([O-])N1CC2(Cc3ccccc3N(C(=O)Cc3ccc(F)cc3)C2)C1`: the activity change, negative = inhibition is -6.17% in experiment [1]; -7.99% in experiment [2]; -4.44% in experiment [3]; -11.1% in experiment [4]; -8.46% in experiment [5].

Turning to `Cc1ccc(CN2C(=O)CSc3c(c4ccccc4n3C)C2C(=O)NCCC(C)C)cc1` (stereo not given), the activity change, negative = inhibition in experiment [1] was 4.48%; in experiment [2], 0%; in experiment [3], -1.16%; in experiment [4], -3.04%; in experiment [5] it was 3.65%.

For the molecule `CCC(C)NC(=O)c1cccc(-c2ccc(OC)nn2)c1` (stereo not given), the activity change, negative = inhibition in experiment [1] was -8.96%; in experiment [2] it was -6.13%; in experiment [3], -4.14%; in experiment [4], -14.3%; in experiment [5], -10.8%.

For the molecule `CC(C)c1c2cc(-c3ccnc(NC4CCC(NC5CCOCC5)CC4)n3)ccc2nn1C` (stereo not given), the activity change, negative = inhibition in experiment [1] was -40.7%; in experiment [2], -12.3%; in experiment [3], -57.4%; in experiment [4], -23.2%; in experiment [5], -25.1%.

As for `COc1cccc(CNC(=O)N[C@@H]2CN(c3ncccn3)C[C@H]2CN(C)C)c1`, the activity change, negative = inhibition is -5.21% in experiment [1]; -8.79% in experiment [2]; -2.93% in experiment [3]; -11.9% in experiment [4]; -7.67% in experiment [5].

With `CCOC(=O)c1cc2n(n1)CC(C)(C(=O)NCc1ccccc1)N(CCc1ccc(SC)cc1)C2=O` (stereo not given), the activity change, negative = inhibition in experiment [1] is 1.73%; in experiment [2], 3.84%; in experiment [3], 10.9%; in experiment [4] it was 3.37%; in experiment [5], 3.12%.

On to `CC(C)CCNC(=O)CCc1nnc2n(Cc3ccc(Cl)cc3)c(=O)c3ccccc3n12`, for which the activity change, negative = inhibition is -4.2% in experiment [1]; 3.14% in experiment [2]; -0.254% in experiment [3]; 1.43% in experiment [4]; -3.84% in experiment [5].

Turning to `CCCCOc1ccc(C(=O)Nc2ccc(F)cc2F)cc1`, the activity change, negative = inhibition in experiment [1] was 5.53%; in experiment [2] it was -2.56%; in experiment [3] it was 4.39%; in experiment [4], -15.1%; in experiment [5], -7.95%.

Regarding `Nc1nc(OCc2cc(Br)cs2)c2[nH]cnc2n1`, the activity change, negative = inhibition was -3.55% in experiment [1]; -4.11% in experiment [2]; 8.16% in experiment [3]; -18% in experiment [4]; 1.76% in experiment [5].

As for `CCCn1c(=O)c2ccccc2n2c(SCC(=O)N3CCN(c4ccc(F)cc4)CC3)nnc12`, the activity change, negative = inhibition was -4.75% in experiment [1]; 0% in experiment [2]; 2.64% in experiment [3]; -10.1% in experiment [4]; 0.524% in experiment [5].

Regarding `Cc1nn(C)c(C)c1S(=O)(=O)N1CCC(c2noc(-c3ccccc3)n2)C1` (stereo not given), the activity change, negative = inhibition in experiment [1] is -4.37%; in experiment [2], -2.42%; in experiment [3] it was -0.185%; in experiment [4], -9.57%; in experiment [5], 1.48%.

With `CC(=O)Nc1nnc(S(N)(=O)=O)s1`, the activity change, negative = inhibition is 1.01% in experiment [1]; 14.9% in experiment [2]; 4.81% in experiment [3]; -0.121% in experiment [4]; 13.2% in experiment [5].

In the case of `COc1c(Nc2ncc(Cl)c(N[C@H]3[C@@H](C(N)=O)[C@@H]4C=C[C@H]3C4)n2)ccc2c1CC[C@@H](N1CCOCC1)CC2`, the activity change, negative = inhibition was 0.543% in experiment [1]; 9.17% in experiment [2]; 7.05% in experiment [3]; -16.7% in experiment [4]; -3.5% in experiment [5].
